Data published in the supplement of paper PMC10986608.
This is one part of the list. Repeats are few or missing, and single values can be far off.

What follows are molecules tested on Candida albicans DPL-15 (assay: growth (OD600) after compound treatment (apparently relative to screen median) (relative growth (fraction; screen median 1.02)); DPL-15 is a caspofungin-resistant clinical isolate; higher = more fungal growth (less antifungal activity)). Conditions: 25 µM; RPMI 1640; 48 h; 30 °C.

| Structure (SMILES) | growth |
| --- | --- |
| CN1C(=O)[C@@]2(C3=C(CCCC3=O)Oc3c2c(=O)oc2ccccc32)c2ccccc21 | 0.998 |
| CCOc1ccc(-n2c(C)c3c(C)nnc(Nc4ccccc4)c3c2C)cc1 | 0.954 |
| CCOc1ccccc1C1CC(=O)Nc2cc3c(cc21)OCO3 (configuration not stated) | 0.993 |
| c1ccc(CCN2CCCC(CN(Cc3ccccc3)Cc3ccccc3)C2)cc1 (configuration not stated) | 0.994 |
| CC(C)=CCc1cc(O)c(O)c2oc3ccccc3c(=O)c12 | 0.718 |
| COc1cc(OC)c2c(=O)c3ccc(OC)c(O)c3oc2c1 | 0.866 |
| COc1ccc(Cn2nc(-c3ccccc3)cc2Nc2cc(O)cc(O)c2C(=O)NCc2ccccc2)cc1 | 1 |
| CCC(=O)Cc1cc(O)cc(O)c1C(=O)N(C)Cc1ccccc1 | 1.22 |
| CCCCCCC12C(=Cc3cc4c(cc31)OCCO4)c1cc(OC)c(OC)cc1C(CC(=O)OC)N2C(=O)OC (configuration not stated) | 1.16 |
| COc1cccc(C2NC(=S)N(CC(C)C)C(C)=C2C(C)=O)c1 (configuration not stated) | 0.971 |
| CC(C)(C)c1ccc2c(c1)[C@]1(Cc3occc(=O)c3OS(C)(=O)=O)CCCCC1=N2 | 0.998 |
| COc1cc([C@@H]2[C@@H](C(=O)NC3CCCC3)[C@@H](C(=O)NC3CCCC3)[C@@H]2c2ccc(O)c(OC)c2)ccc1O | 1.06 |
| C=CCC[C@@H](O)COc1cc2c(cc1C1(c3cc4c(cc3OC[C@H](O)CCC=C)OCO4)C(=O)Nc3ccc(C)cc31)OCO2 | 1.16 |
| COc1ccc(Cn2nc(-c3ccccc3)cc2N)cc1 | 0.957 |
| CC(C)CC1=NCCNC2=C1C(c1ccc3c(c1)OCO3)N(c1ccccc1)C2=O (configuration not stated) | 0.938 |
| CC(=O)OC[C@]12CC[C@@H](C(C)=O)[C@@H]1[C@H]1CC[C@@H]3[C@@]4(C)CC[C@H](O)[C@](C)(O)[C@@H]4CC[C@@]3(C)[C@]1(C)CC2 | 1.15 |
| C#CCOc1cccc(CNC(=O)C2CCCN(CCc3ccccc3C)C2)c1 (configuration not stated) | 1.19 |
| CC(C)CCc1cc(OCC(=O)O)cc2oc3ccccc3c(=O)c12 | 1.03 |
| COc1ccc([C@@]23Oc4cc(OC)cc(OC)c4[C@]2(O)[C@H](O)[C@H](C(=O)c2ccc(C)o2)[C@H]3c2ccccc2)cc1 | 1.14 |
| O=C(Nc1ncccc1OCc1ccccc1)OCC(Cl)(Cl)Cl | 1.03 |
| Cn1nc(-c2ccccc2)c2c1C(=O)N(c1ccccc1)C2c1ccc2c(c1)OCO2 (configuration not stated) | 0.954 |

| Structure (SMILES) | growth |
| --- | --- |
| CCCCCCC12C(=Cc3cc4c(cc31)OCCO4)c1cc(OC)c(OC)cc1C(CCO)N2C (configuration not stated) | 1.13 |
| C/C=C/C=C/C(=O)c1cc(C)c(O)c(C)c1O | 0.713 |
| COc1cc(/C=C/c2cc(/C=C/c3ccc(O)c(OC)c3)[nH]n2)ccc1O | 1.06 |
| CCC1=C(C(=O)OC)C(c2ccccc2)NC(=O)N1 (configuration not stated) | 1.22 |
| Cc1cc(Nc2cc(O)cc(O)c2C(=O)N2CC[C@H](F)C2)n(C)n1 | 1.16 |
| COC(=O)C1=C[C@H]([C@@H](C)[C@H](OC)c2ccccc2Br)[C@H]2c3ccccc3O[C@@H]12 | 1.17 |
| CO[C@H]1CCN(C(=O)c2c(O)cc(O)cc2Nc2c(C)nn(C)c2C)C1 | 1.18 |
| COc1ccc(O)c2c(=O)n(C)c(C)cc12 | 1.21 |
| CC(C)(C)NS(=O)(=O)N(CCC1CCCC1)C(=O)OC(C)(C)C | 1.1 |
| c1ccc([C@@H]2CC(c3ccccc3)(c3ccccc3)Oc3cc4c(cc32)OCO4)cc1 | 0.95 |
| C/C=C/C=C/C(=O)c1c(O)c(C)c(O)c(C)c1-c1c(O)cc(C)oc1=O | 1.09 |
| O=c1c2ccccc2oc2cc(O)cc(O)c12 | 0.843 |
| COc1ccc([C@H]2O[C@@H](c3ccc4c(c3)OCO4)[C@@H](C)[C@H]2C)cc1OC | 0.944 |
| CO[C@@H]1[C@H](O)CC[C@]2(O)CN(CCCOC(C)C)[C@](C)([C@H](O)CC=C(C)C)[C@@H]12 | 1.07 |
| C#CCC(C)(C)CNC(=O)CC1(CNC(=O)c2cccc(/C=N/N=C/c3cccc(C(=O)NCC4(CC(=O)NCC(C)(C)CC#C)CCCCC4)c3)c2)CCCCC1 | 1.19 |
| COC(=O)C1=C(C)N(Cc2ccc(C(F)(F)F)cc2)C(NCCCOC(C)C)=NC1c1ccc(Cl)cc1 (configuration not stated) | 0.989 |
| Nc1c(-c2ccc(F)nc2)cnc2c(-c3ccc(Cl)cc3)cnn12 | 1.17 |
| COC(=O)C1=C(C)N(CCc2cccs2)C(NCc2ccccc2)=NC1c1ccc(C)cc1 (configuration not stated) | 1.19 |
| Cc1cc(Cl)nc(CCCc2ccccc2)c1 | 1.13 |
| Cc1ccc(S(=O)(=O)N2CCCC3OCCCC3=C2c2cccs2)cc1 (configuration not stated) | 0.967 |
| Cc1nn(C)c2c1C(c1ccc(Br)cc1)NC2=O (configuration not stated) | 1.04 |

| Structure (SMILES) | growth |
| --- | --- |
| COc1ccc(N2C(=O)c3[nH]nc(CC(C)C)c3C2c2ccccc2)cc1 (configuration not stated) | 0.822 |
| C#CCC(C)(C)CNC(=O)CC1(CNC(=O)Cn2cccc2/C=N/NS(=O)(=O)c2ccc(C)cc2)CCCCC1 | 1.01 |
| COc1ccc(Cn2nc(C)cc2Nc2cc(O)cc(O)c2C(=O)N2Cc3ccc(OCCN(C)C)cc3C2)cc1 | 1.15 |
| Cc1cc(C)cc(-n2nc(CC(C)C)c3c2C(=O)NC3c2ccc(Br)cc2)c1 (configuration not stated) | 0.948 |
| CC(C)(C)c1ccc(C#C[C@@H]2C=C[C@@H](OC(=O)NCc3ccccc3)[C@@H](CO)O2)cc1 | 1.05 |
| COc1ccc2c(c1)-c1c(OC)cc(OC)c3c1C(C)(O2)Oc1ccc(OC)cc1-3 | 1.09 |
| COCOc1ccc(Br)cc1C(=O)/C=C/c1ccc2c(c1)OCO2 | 1.08 |
| CCc1cc2c(nc1CC)CCCN2S(=O)(=O)c1c(C)noc1C | 0.914 |
| C=CCNC1=NC(c2ccccc2)C(C(=O)OC)=C(C)N1C (configuration not stated) | 0.997 |
| COc1ccc(N2C(=O)c3[nH]nc(CC(C)C)c3C2C2CCCCC2)cc1F (configuration not stated) | 1.21 |
| COc1ccccc1Cn1nc(C(C)C)c2c1C(=O)NC2c1cccc(C(F)(F)F)c1 (configuration not stated) | 0.967 |
| CC1(C)CN=C(c2ccccc2)C2=C(N1)C(=O)N(c1ccccc1)C2c1ccccc1 (configuration not stated) | 1.08 |
| COc1ccc([C@@]23Oc4cc(OC)cc(OC)c4[C@]2(O)[C@H](O)[C@H](C(=O)N(C)OC)[C@H]3c2ccsc2)cc1 | 1.16 |
| CCOc1cc2c(cc1C1(c3cc4c(cc3OCC)OCO4)C(=O)Nc3cc(F)ccc31)OCO2 | 0.892 |
| CN(Cc1ccccc1)CC1CCCN(CCc2ccccn2)C1 (configuration not stated) | 1.01 |
| C=C1CC[C@@H]2[C@H](C(=O)C(C)C)C3=C(O[C@@]2(C)CC[C@@H]2[C@@H]1CC2(C)C)C(C)(C)C(=O)C(C)(C)C3=O | 0.953 |
| COc1ccc(CCn2ccc(N)n2)cc1 | 1.07 |
| O=C1CC2(CCCCC2)CNC(=O)c2cccc(c2)/C=C/C=C\CCCCCN1 | 1.11 |
| CC(=O)C1=C2C=CCCN2C(=O)NC1c1cc(F)ccc1C (configuration not stated) | 0.993 |
| C#CCOC[C@@H](NC(=O)CC1(CN)CCCCC1)c1ccccc1 | 1.22 |
| C[C@@H]1CC2=CCC[C@H]2[C@]2(O1)C(=O)Nc1cccc(Br)c12 | 0.955 |

| Structure (SMILES) | growth |
| --- | --- |
| Cc1ccc(C2NC(=O)c3c2c(CC(C)C)nn3-c2ccccc2)cc1 (configuration not stated) | 1.14 |
| CC1(C)c2ccccc2O[C@H]2c3ccccc3C[C@H]21 | 1 |
| O=C1NC(c2ccc3c(c2)OCO3)c2c1nn(-c1ccc(F)cc1)c2-c1ccccc1 (configuration not stated) | 0.858 |
| CS(=O)(=O)Oc1c(C[C@@]23CCCCC2=Nc2ccc(Br)cc23)occc1=O | 1.11 |
| COc1ccc(C(=O)Nc2ccc(CCN3CCc4cc(OC)c(OC)cc4C3)cc2)c(N)c1 | 1.1 |
| Cc1ccc(C#C[C@@H]2C=C[C@H](Oc3ccc4c(c3)OCO4)[C@@H](CO)O2)c(C)c1 | 0.877 |
| CO/N=C(\c1ccco1)[C@H]1[C@@H](O)[C@@]2(O)c3c(OC)cc(OC)cc3O[C@@]2(c2ccc(OC)cc2)[C@@H]1c1ccccc1 | 1.69 |
| CC1(C)OC(=O)c2c(CCCN(CCCCOc3ccc(CN4CCCC4)cc3)CCc3ccccc3)cccc2O1 | 0.908 |
| COC(=O)[C@@]12Oc3ccc(C4=CCN(C(=O)OC(C)(C)C)CC4)c(O)c3C(=O)C1=C(N)C[C@H](C)[C@H]2O | 1.02 |
| CC(=O)OC[C@H]1O[C@H](c2ccc(C(C)=O)cc2)C=C[C@@H]1OC(C)=O | 1.05 |
| CC1=CC2Oc3cccc(O)c3C(=O)C2C(O)=C1 (configuration not stated) | 1.12 |
| COc1ccc(N2C(=O)c3[nH]nc(CC(C)C)c3C2c2ncccc2Cl)cc1 (configuration not stated) | 1.07 |
| CC(=O)OC[C@H]1O[C@H](c2ccc(F)cc2)C=C[C@H]1OC(C)=O | 0.884 |
| COc1cc([C@@H]2[C@@H](C(=O)NCC3CC3)[C@@H](C(=O)NCC3CC3)[C@@H]2c2cc(OC)c(OC)c(OC)c2)cc(OC)c1OC | 1.06 |
| COc1ccc(OC)c(CNCC2CCN(CCc3ccccc3C)CC2)c1 | 1.07 |
| CCCCc1nc2c(c3c1C[C@H](C)OC3)CN(C(=O)c1cccnc1)CC2 | 1.09 |
| CC(C)Cc1n[nH]c2c1C(c1cccc(Cl)c1)N(c1ccc3c(c1)OCO3)C2=O (configuration not stated) | 0.921 |
| C=CC[C@H]1C[C@@]23C[C@H](CC=C)C(C)(C)[C@@](CC=C)(C(=O)OC2=C(C(=O)c2ccccc2)C1(C)C)C3=O | 1.13 |
| Cn1nccc1Nc1cc(O)cc(O)c1C(=O)N1Cc2ccccc2C1 | 1.02 |
